Test results published in article PMC3901934.
Substitutions are numbered along the chain they refer to. These are yes or no findings as the source states them, for the method shown. In cells and extracts the contact can be indirect. Some entries that bind do so weakly or less than the wild type. For some assays here: Where a sequence is shown, tags or fusion partners need not be part of it.

B1: vinculin (endogenous in CAS-/- and FAK-/- MEFs) (protein, UniProt Q64727 1-1066)
chain: MPVFHTRTIESILEPVAQQISHLVIMHEEGEVDGKAIPDLTAPVAAVQAAVSNLVRVGKETVQTTEDQILKRDMPPAFIKVENACTKLVQAAQMLQSDPYSVPARDYLIDGSRGILSGTSDLLLTFDEAEVRKIIRVCKGILEYLTVAEVVETMEDLVTYTKNLGPGMTKMAKMIDERQQELTHQEHRVMLVNSMNTVKELLPVLISAMKIFVTTKNSKNQGIEEALKNRNFTVEKMSAEINEIIRVLQLTSWDEDAWASKDTEAMKRALASIDSKLNQAKGWLRDPNASPGDAGEQAIRQILDEAGKVGELCAGKERREILGTCKMLGQMTDQVADLRARGQGASPVAMQKAQQVSQGLDVLTAKVENAARKLEAMTNSKQSIAKKIDAAQNWLADPNGGPEGEEQIRGALAEARKIAELCDDPKERDDILRSLGEIAALTSKLGDLRRQGKGDSPEARALAKQVATALQNLQTKTNRAVANSRPAKAAVHLEGKIEQAQRWIDNPTVDDRGVGQAAIRGLVAEGHRLANVMMGPYRQDLLAKCDRVDQLTAQLADLAARGEGESPQARALASQLQDSLKDLKAQMQEAMTQEVSDVFSDTTTPIKLLAVAATAPPDAPNREEVFDERAANFENHSGRLGATAEKAAAVGTANKSTVEGIQASVKTARELTPQVISAARILLRNPGNQAAYEHFETMKNQWIDNVEKMTGLVDEAIDTKSLLDASEEAIKKDLDKCKVAMANIQPQMLVAGATSIARRANRILLVAKREVENSEDPKFREAVKAASDELSKTISPMVMDAKAVAGNISDPGLQKSFLDSGYRILGAVAKVREAFQPQEPDFPPPPPDLEQLRLTDELAPPKPPLPEGEVPPPRPPPPEEKDEEFPEQKAGEVINQPMMMAARQLHDEARKWSSKGNDIIAAAKRMALLMAEMSRLVRGGSGTKRALIQCAKDIAKASDEVTRLAKEVAKQCTDKRIRTNLLQVCERIPTISTQLKILSTVKATMLGRTNISDEESEQATEMLVHNAQNLMQSVKETVREAEAASIKIRTDAGFTLRWVRKTPWYQ
B2: full-length CAS (in Vin-/- MEFs) (protein, UniProt Q61140 1-874)
chain: MTVPNVLAKALYDNVAESPDELSFRKGDIMTVLERDTQGLDGWWLCSLHGRQGIVPGNRLKILVGMYDKKPVGPGPGPPATPPQPQPSLPQGVHAPVPPASQYSPMLPTAYQPQSDNVYLVPTPSKTQQGLYQAPGPNPQFQSPPAKQTSTFSKQTPHHSFPSPATDLYQVPPGPGSPAQDIYQVPPSAGIGHDIYQVPPSLDTRGWEGTKPPAKVVVPTRVGQGYVYEAAQTEQDEYDTPRHLLAPGPQDIYDVPPVRGLLPNQYGQEVYDTPPMAVKGPNGRDPLLDVYDVPPSVEKGLLSSSHHSVYDVPPSVSKDVPDGPLLREETYDVPPAFAKPKPFDPTRHPLILAAPPPDSPAAEDVYDVPPPAPDLYDVPPGLRRPGPGTLYDVPRERVLPPEVADGSVVDDGVYAVPPPAEREAPTDGKRLSASSTGSTRSSQSASSLEVVVPGREPLELEVAVESLARLQQGVSTTVAHLLDLVGSASGPGGWRGTSEPQEPPAQDLKAAVAAVHGAVHELLEFARGAVSNATHTSDRTLHAKLSRQLQKMEDVYQTLVVHGQVLDSGRGSPGFTPEDLDRLVACSRAVPEDAKQLASFLHGNASLLFRRTKAPGPGPEGSSSLHPNPTDKASSIQSRPLPSPPKFTSQDSPDGQYENSEGGWMEDYDYVHLQGKEEFEKTQKELLERGNIMRQGKGQLELQQLKQFERLEQEVSRPIDHDLANWTPAQPLVPGRTGGLGPSDRQLLLFYLEQCEANLTTLTDAVDAFFTAVATNQPPKIFVAHSKFVILSAHKLVFIGDTLSRQAKAADVRSQVTHYSNLLCDLLRGIVATTKAAALQYPSPSAAQDMVDRVKELGHSTQQFRRVLGQLAAA

Legend:
[1] = biological target: T1, GFP–CAS WT (full-length CAS tagged with GFP) (UniProt Q61140); test: co-IP; GFP-CAS immunoprecipitated with anti-GFP from CAS-/- MEFs expressing CAS Y12 variants (Fig. 1b) and from FAK-/- MEFs (Fig. 1c); NP-40 lysis buffer; blot with vinculin antibody
T1 sequence: B2 chain

[2] = biological target: T2, GFP–CAS Y12E (full-length CAS tagged with GFP) (UniProt Q61140); test: as above
T2 sequence: B2 chain with Y12E

[3] = biological target: T3, GFP–CAS Y12F (full-length CAS tagged with GFP) (UniProt Q61140); test: as above
T3 sequence: B2 chain with Y12F

[4] = biological target: Vin WT GFP (GFP-fused vinculin WT) (UniProt Q64727); test: co-IP; GFP vinculin (WT or PNSS) immunoprecipitated with anti-GFP from Vin-/- MEFs; NP-40 lysis buffer; blots with CAS, paxillin and Arp2 antibodies
[5] = biological target: T4, Vin PNSS GFP (GFP-fused vinculin with PKPP in the proline-rich region changed to PNSS) (UniProt Q64727); test: as above
T4 sequence: B1 chain with K862N, P863S, P864S

Binder	binding [1]	binding [2]	binding [3]	binding [4]	binding [5]
B1	binds	no binding	binds		
B2				binds	no binding
